Data from publication PMC4336329 (PLoS ONE, 2015).
The campaign covered roughly 310,000 compounds. About 14,000 (4.5%) showed an effect of 50% or more. Effects have a minus sign here. Some of the results follow.

Biological target: human ether-à-go-go-related gene (hERG) potassium channel (human, UniProt Q12809)
Assay: primary screen, population patch clamp on CHO cells stably expressing hERG
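Further: peak tail current of the secondary pulse compared with the same well before compound.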

Chain of human ether-à-go-go-related gene (hERG) potassium channel (Q12809 whole entry, looked up): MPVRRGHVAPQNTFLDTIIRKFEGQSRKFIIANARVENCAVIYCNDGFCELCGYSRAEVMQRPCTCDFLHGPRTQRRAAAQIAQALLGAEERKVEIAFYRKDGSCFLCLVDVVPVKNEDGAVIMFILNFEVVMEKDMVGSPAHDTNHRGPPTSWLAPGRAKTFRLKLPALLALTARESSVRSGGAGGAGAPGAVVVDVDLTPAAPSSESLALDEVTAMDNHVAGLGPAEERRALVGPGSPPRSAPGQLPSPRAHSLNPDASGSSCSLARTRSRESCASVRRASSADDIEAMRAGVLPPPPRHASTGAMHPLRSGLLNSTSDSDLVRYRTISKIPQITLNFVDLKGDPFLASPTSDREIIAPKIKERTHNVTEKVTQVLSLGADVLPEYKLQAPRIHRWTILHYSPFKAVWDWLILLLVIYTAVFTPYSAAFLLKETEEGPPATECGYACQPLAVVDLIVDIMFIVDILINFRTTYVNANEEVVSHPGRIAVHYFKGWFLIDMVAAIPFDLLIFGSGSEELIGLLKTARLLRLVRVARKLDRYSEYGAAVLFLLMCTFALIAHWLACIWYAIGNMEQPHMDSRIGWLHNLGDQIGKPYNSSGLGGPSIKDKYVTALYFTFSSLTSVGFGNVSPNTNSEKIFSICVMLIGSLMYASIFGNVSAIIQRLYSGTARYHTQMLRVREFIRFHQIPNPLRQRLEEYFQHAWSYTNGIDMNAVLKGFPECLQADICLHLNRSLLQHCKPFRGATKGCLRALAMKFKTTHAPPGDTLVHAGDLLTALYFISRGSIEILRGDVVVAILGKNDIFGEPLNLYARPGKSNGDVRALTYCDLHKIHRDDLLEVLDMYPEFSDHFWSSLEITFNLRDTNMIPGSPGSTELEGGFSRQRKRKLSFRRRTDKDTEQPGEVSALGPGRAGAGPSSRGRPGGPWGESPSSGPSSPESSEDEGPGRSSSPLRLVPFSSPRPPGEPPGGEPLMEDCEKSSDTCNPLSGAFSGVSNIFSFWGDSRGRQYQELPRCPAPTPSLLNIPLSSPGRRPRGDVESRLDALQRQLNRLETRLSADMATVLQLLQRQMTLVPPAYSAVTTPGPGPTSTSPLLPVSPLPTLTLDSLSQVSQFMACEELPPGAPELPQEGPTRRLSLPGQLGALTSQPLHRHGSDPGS

Compound	hERG current change (%, negative = inhibition) at 10uM [%]
O=C(O)CCCCCN1C(=O)/C(=C\c2ccc(-c3ccc(Cl)cc3)o2)SC1=S	18
Cc1ccc(CC(=O)NNC(=O)c2ccncc2)cc1C	21.1
COC/C=C/C1=CC2=CC(=O)C(C)(OC(=O)c3cnc4ccccc4n3)C(=O)C2=CN1C1CC1 (stereo not drawn)	7.86
S=C(NCCc1ccccc1)Nc1ccc(Cl)cc1Cl	-0.477
CCCn1c(=O)c(C(=O)N/N=C/c2ccc(F)cc2)c(O)c2ccccc21	7.68
Cc1ccc(-n2ncc3c(N4CCCC4)ncnc32)c(C)c1	-6.38
COc1ccc(OC)c(C2c3[nH]c4ccccc4c3C[C@H]3C(=O)N(C4CC4)CC(=O)N23)c1 (stereo partly drawn)	-19.2
COC(=O)C1=C(c2cccc(C#N)c2)C[C@@H]2CC[C@H]1N2C(=O)N1CCc2cc(OC)c(OC)cc2C1	-14.1
O=C(O)c1cc[c]([Hg][Cl])cc1	-18.1
CSc1ccccc1NC(=O)c1cc(-c2cccnc2)nc2ccc(Br)cc12	13.6
COc1cc(C=Nc2ccccc2C(=O)Nc2ccccc2)cc(OC)c1OC	3.78
COc1ccc(S(=O)(=O)CC(=O)c2cc(C)c(O)c(C)c2)cc1	5.63
CCCN(CCC)c1nc2ccccc2nc1C(C#N)C(=O)OC(C)COC (stereo not drawn)	-10.2
COC(=O)c1cc(Br)ccc1NC(=O)CSCc1c(C)noc1C	-5.04
COc1cc(OC)cc(C(=O)N[C@H](C(=O)Nc2cccc(S(=O)(=O)N3CCCC3)c2)C(C)C)c1	2.47
O=[N+]([O-])c1ccc(CSc2ncnc3c2ncn3[C@@H]2O[C@H](CO)[C@@H](O)[C@H]2O)cc1	-5.61
Cc1onc(-c2ccccc2Cl)c1C(=O)NCc1nnnn1-c1ccc(F)cc1	3.6
S=C(NCc1ccc(Cl)cc1)NN1CCOCC1	7.92
Cc1cc(C)c(NC(=O)c2ccoc2C)c(C)c1	3.01
COC(=O)Nc1nnc(-c2ccncc2)s1	9.86
CCOC(=O)C1CCN(C(=O)CSc2nnc(-c3ccco3)n2-c2ccccc2)CC1	-27.8
COC(=O)CCC(=O)COc1ccccc1C#N	-4.14
C=Cn1c(C(=O)O)cc(CC)c1-c1ccccc1	-0.732
O=C(Oc1ccc2c(c1)OCO2)c1ccc(Br)c(S(=O)(=O)N2CCOCC2)c1	-9.3
